Source: the RNAGym collection of RNA variant scans (doi:10.1093/nar/gkz1192)
Read counts are not given, so values of variants with three or more changes are uncertain.

B1: CPEB3 Ribozyme (parent)
chain: UAACAGGGGGCCACAGCAGAAGCGUUCACGUCGCAGCCCCUGUCAGAUUCUGGUGAAUCUGCGAAUUCUGCUGUAUAUCUC

Variants of: B1
Test: self-cleavage, relative activity (ratio to wild type); higher = more cleavage; in vitro, sequencing
Summary of the method: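 Relative activity was defined as the cleaved/total read fraction for a variant divided by the same fraction for the unmutated ribozyme. CPEB3 self-cleaving ribozyme libraries were made by rounds of error-prone PCR, barcoded, and transcribed in vitro with T7 RNA polymerase for 5 hours at 37°C, and cleavage ran through transcription plus a 15 min DNase I step before EDTA. Illumina sequencing of template-switched reverse transcripts gave the reads, and DNA sequencing mapped the barcodes. Averages come from three batches, using variants with at least 5 reads.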

Variant | self-cleavage
U1C A5C U31C A47G | 0.48
U1C A13G A28G | 0.55
U1C U41G G42A | 0.18
U1C G9U A65G | 0.12
U1C A13G A28G U48C U60C | 0.17
U1C U41A U49C U54C | 0.13
U1C G8C A15G A28U U51A U67C A75G | 0.03
A2C A3G G19C A20G U43G U58A A64G | 0
U1C G24A U60A | 0.08
U1C A13G G16A C62A A64G | 0.08
U1C A20G U67A | 0.2
U1C C34U U41C U66C | 0.12
U1C A35G U66C | 1.03
U1G A18U G46A C50U | 0.1
U1C C12U U60A | 0.84
U1C C11U A18U | 0.34
U1C C40A U69C | 0.05
U1C U48C C68G U72C | 0.28
U1C A15G U60C A64C | 0.39
U1C C17G G19U | 0.17
U1C U43C A47G A57U A64U | 0.07
U1C G8A A18G A35U A56G | 0.04
U1C U26A A47G A77G U78A | 0.87
U1C A5G A15G U60A G70C C81A | 0.09

Variant | self-cleavage
U1C A5G A15G A18G U26C U51A U78A | 0.65
U1C C17U U72A | 0.22
U1C A15G A18U U49A U60C U80C | 0.06
U1C A28G G33A C79U | 0.04
U1C C11G C27A G33A U67C C68A | 0.16
U1A C14U U25C U54C | 0.19
U1C A35G U48A U51A A65G | 0.41
U1C A18G U25C U60C U72C | 0.38
U1C U25C A35G C40A A56G | 0.49
U1C A35G U43A U58C U60A | 0.65
U1C C17U U41A G46A U67A | 0.14
U1C A45G U80C | 0.54
U1C A13U C17U U41A A65G | 0.06
U1C A15G U31A | 0.33
U1A U41C A56C | 0.27
U1C A3G U51C C68U A75U | 0.94
U1A A56G U67C | 0.43
U1A C12G U26C U58A | 0.06
U1G A2G A20U | 0.39
U1C U25G A56G C79A | 0.06
U1C A13U U31C U43C U49C U72A U74C | 0.05
U1C A3G G6A U49A | 0.14
U1A A35U U48C | 0.25
U1C U31A A35U C38U U41C U54C | 0.07

Variant | self-cleavage
U1A G10A A64G | 0.3
U1A U41A U78A | 0.37
U1A U41C U48C U69A U72C | 0.16
U1A G6A U41A G61A U80C | 0.08
U1A C4U A35G U43G | 0.56
U1C G22U A45U U54C U67A | 0.06
U1C U41A U43C C44A A65U | 0.11
U1G G8U A20G | 0.32
U1C A18G U26A | 0.36
U1C A35G U43A A56U U60C A64G | 0.39
U1C A47G A77G | 1.05
U1C G9A U31C A47U U51C U54C | 0.05
U1C G33U C39U A57G A65G | 0.17
U1C A20G A56C | 0.26
U1A G52A G55A A77U U80C | 1.1
U1C A21G C27A A28G C34A | 0.33
U1C G9A A13C U31C U66C | 0.46
U1C G8C G22A A28U C29A C32U U66C | 0.03
U1C U31G U76A | 0.32
U1C C14U A64G | 0.97
U1C C11G U25A U51C | 0.08
U1C G9A A57G U58C G70A | 0.2
U1C U41A U80C C81A | 0.42
U1C A2U C11U G24C U25C U67C | 0.05

Variant | self-cleavage
U1C A5G A13U U60C A64G | 0.23
U1C A15G U41C U66G A77G | 0.34
U1C A5G C34A U66C U69A | 0.16
U1C C11A G53U U60C | 0.27
U1A U31A U67C U76A | 0.14
U1C G30A U49C | 0.22
U1C A56G U69A A77G | 0.23
U1A G8A A47G | 0.28
U1C C12G A13U | 0.79
U1C C11U A15G A28G C39U A45G | 0.06
U1C A5G A18U U31A U41C A56U U72G | 0.05
U1C A35C U41C U69C A75G | 0.4
U1A A45C U48C | 0.2
U1C U51G U54C | 1.03
U1C C14U A45U U49A | 0.07
U1C C40A A45U | 0.06
U1C A18C A21G | 0.06
A2C A3G C37G | 0.96
U1A C4A G10A A13U A20U U67C U69C | 0.2
U1C U25A U26C U66A U69C | 0.05
U1C U41A G70C | 0.16
U1C A20G U31C C40A | 0.28
U1C A18G A45G | 0.48
U1C G9A G10C G30U U60C U74A U78C | 0.04

Variant | self-cleavage
U1C U25C A28U | 0.27
U1G U25C C40A A75G | 0.28
U1C A21G C32U G33A | 0.13
U1C C44U A64G U66A C68A | 0.05
U1C A2G A15G A21G U41A | 0.27
U1A C29U A56G U72C A75U | 0.4
U1C U26C A28C U80A | 0.06
U1C U41A A45G | 0.4
U1C A5C A28G A35U U51C G53A U67C | 0.19
U1A U26A U41C | 0.58
U1C U31A U43C | 0.15
U1C A65U U80C | 0.13
U1C A13G U54A G63C | 0.64
U1C A18G A65G U69A | 0.2
U1C A3G A13U A45G A56U A57G G63U | 0.23
U1C A20U U54C U67G U69C U72A | 0.03
U1C A18G U25C U69A | 0.03
U1C C44A C62A | 0.22
U1C A28U U41A G55C U72C | 0.17
U1C U41A U54C U74G U80C | 0.28
U1A G10A U26C U51C A64U G70U | 0.05
U1C U26A U31C | 0.5
U1G U41G A64C | 0.21
U1C G10A A20U A28G A65G | 0.04

Variant | self-cleavage
U1C U41A U48C | 0.16
U1C A20U A56G U60G A64G | 0.16
U1C A5U G10U A45G A57G U69C | 0.05
U1A U49A A56G A64U U69A | 0.15
U1C G10A A18C A45C U49C U67A | 0.05
U1G A28G U49A | 0.21
U1A U26A U76C | 0.69
U1C A20U U54A A56G | 0.47
U1G U25C C40A A56G A75G A77U | 0.27
U1A U60C A75U A77G | 0.57
U1C C12U A35G | 1.09
U1A A57G U67C | 0.33
U1A G9A G36A U43G | 0.06
U1A C11U A13G A35G C62A | 0.08
U1C A2U U25A U26A A47G U51C A77C | 0.04
U1C U25C A35U | 0.4
U1A G30A A45C | 0.08
U1C A2G A20U U41A U43C U72A A75U | 0.05
U1C A2U A15U U25A G33C U43G U69A | 0.05
U1C G10C U25C C32U U41C C62U | 0.04
U1C G7A G10U U41C A45G G63U | 0.05
U1A C4A A15U U51C A57U G70A U72C | 0.2
U1C A13U U25C A57G U72A | 0.06
U1A U51C G55A | 0.59

Variant | self-cleavage
U1C A18U A64G U78C | 0.17
U1C C11G U60C | 0.08
U1G C39G U41A G61U | 0.18
U1C A18U U41C U69C U78C | 0.57
U1C A35G U51C G52U A75U U80C | 1.2
U1C U49C U74C | 0.28
U1C U25C U41A A65C | 0.56
U1A C39U U48C U60C | 0.2
U1C A13U G24C | 0.19
U1G C17G A20C G36A U60A U69A U72A | 0.04
U1C A75G U78C | 0.67
U1C A21G U26C A77G U78C | 0.06
U1C C39U U60A U76C | 0.3
U1C G30A U51A C62A | 0.07
U1C A5G C14A A15G C32A U67C | 0.08
U1A U49A U54C U69C U72A U78A | 0.13
U1C G30U A64U U72A | 0.18
U1C U31C U51C U58A C79U | 0.17
U1C A3U U25C | 0.1
U1A U31C U41C U51C A75U C81U | 0.83
U1C G10A A28G U60C | 0.06
U1C A5G G8U U43G A56U U80C | 0.06
U1C A2G A5U A13C U25A | 0.54
